# Source: US20180148514A1, “MULTIVALENT MEDITOPES, MEDITOPE-BINDING ANTIBODIES AND USES THEREOF” (City of Hope, priority 2014, published 2018)
# What was measured:
# [1] = tested on: HL-60 cells; test: pHrodo-labeled antibody internalization, fluorescence microscopy, HL-60; type: cell-based, human; conditions: 100 nM antibody with or without 100 nM meditope-Fc, 30 minutes, 37° C., n=9
# Procedure: Meditope-enabled gemtuzumab antibodies were labeled with pHrodo™ Red SE (ThermoFisher Scientific, Waltham, Mass.) according to manufacturer's instructions. The pHrodo™ dye is pH sensitive; its fluorescence increases as pH decreases. Thus, quantifying the fluorescence of pHrodo™-labeled antibodies indicates the rates of antibody endocytosis. Briefly, pHrodo™ was prepared in dry dimethylsulfoxide (DMSO) (Invitrogen) to achieve a final concentration of 2-5 μM of dye. 2 mg of antibody was dissolved in 2 mL of phosphate buffered saline (PBS) at pH 9. Fluorescent probe was then added slowly in four 50 ul increments to the antibody solution and incubated with each addition for 15 minutes with rocking at room temperature. […]
# HL-60 cells, a human promyelocytic leukemia cell line were stained for fluorescence microscopy to determine receptor-mediated endocytosis rates of the pHrodo™-labeled antibody. […]
# At the appropriate time points, coverslips were washed in ice-cold BSA/PBS before fixation in 4% paraformaldehyde (PFA). […] Z sectioning permitted visualization of the internalized materials and all quantitative measurements were taken at the same defined section height. Total fluorescence of each stain inside and outside of imaged cells (n=9) were calculated using ImageJ analysis at a single time point of 30 minutes. Total staining for gemtuzumab alone was calculated as 6604.57±463.95.
# [2] = tested on: MDA-MB-468 cells; test: FACS binding of meditopes to MDA-MB-468 cells pre-treated with cetuximab or M425; type: cell-based
# [3] = tested on: MDA-MB-468 cells; test: Confocal/fluorescent microscopy of cetuximab with MFC or M4FC; type: cell-based; conditions: co-incubated with cetuximab
# [4] = tested on: HER2-paGFP in MDA-MB-468 cells; test: PC-PALM super-resolution imaging of HER2-paGFP distribution; type: cell-based; conditions: 10 nM meditope-enabled Trastuzumab v2.0 10 min
# [5] = M4FC storage stability; type: physicochemical; conditions: 4° C.
# Procedure: For long-term storage, the protein was flash-frozen in small aliquots and stored at −80° C. Thawed M4FC was re-sized to remove aggregates.
# [6] = tested on: cell surface antigen; test: Binding of tetravalent meditope-Fc via meditope enabled antibody bound to cell surface antigen; type: cell-based
# Source text: In some embodiments, each or one or more of the above tetravalent and bivalent constructs are shown to bind, e.g., with high affinity via meditope enabled antibody bound to cell surface antigen.
# [7] = tested on: cetuximab IgG; test: SPR binding kinetics of monovalent and tetravalent meditopes to cetuximab; conditions: avidin saturated with biotinylated meditope passed over immobilized cetuximab IgG, versus monovalent meditope
# Source text: The panel above the surface plasmon resonance traces depicts a cartoon of the monovalent meditopes being passed over the bivalent IgG. […] The off-rate of the multivalent meditope was reduced by at least 36 fold. (Note the time scales between the two experiments are different.)
# In one embodiment, the multivalent meditope tethering entity is a tetravalent meditope tethering agent. In one aspect, the tetrameric tethering entity is shown by surface plasmon resonance to have enhanced binding to an antibody as compared to the monovalent peptide, which is consistent with a multivalent interaction. […] Such binding affinities can be determined using well-known methods, e.g., by FACS analysis.
molecule,measurement,setting,value
"gemtuzumab: Meditope-enabled gemtuzumab, light chain SEQ ID NO: 224, heavy chain SEQ ID NO: 225, pHrodo Red labeled (protein, pHrodo Red label; (1)..(213) MB-004-107 Gemtuzumab enabled antibody, light chain; (1)..(446) MB-004-107 Gemtuzumab enabled antibody, heavy chain) light: QIVLTQSPAIMSASPGEKVTITCSASSSISYMHWFQQRTNGSPRLWIYTTSNLASGVPARFSGSGSGTSYSLTISRMEAEDEADYYCHQRSTYPLTFGAGTKLELKRTVAAPSVFIFPPSDEQLKSGTASVVCLLNNFYPREAKVQWKVDNALQSGNSQESVTEQDSKDSTYSLSSTLTLSKADYEKHKVYACEVTHQGLSSPVTKSFNRGEC heavy: QVQLQQSGAELAKPGASVKMSCKASGYTFTSYRMHWVKQSPGQGLEWIGYINPSTGYTEYNQKFKDKATLTADKSSSTAYMQLSSLTFEDSAIYYCARGGGVFDYWGQGTTLTVSS[human IgG1 constant region not written out]","total staining (total fluorescence, ImageJ)",[1],6604.57±463.95
meditope-Fc: meditope fused to N-terminus of human IgG Fc via 37-residue linker; bivalent; SEQ ID NO: 57 (protein) GCQFDLSTRRLRCGGSRSGGTSGGGSVPGSGSSGSTSGSGKSSEGSGQ[human IgG1 Fc and a few adjoining residues not written out],binding signal after washing (FACS),"[2]; cetuximab pre-treated MDA-MB-468 cells, after wash",remained bound despite an extensive washing procedure
same,binding to cells (FACS),[2]; with or without cetuximab or M425 pre-treatment,did not bind to untreated cells or cells pre-treated with M425
same,persistence of meditope signal in cells,[3],observed even following overnight incubation
M4FC: tetravalent meditope-Fc having the amino acid sequence of SEQ ID NO: 58 (protein) GCQFDLSTRRLRCGGSRSGGTSGTGSTSGSGSSGSTSGSGKSSEGSGQAS[human IgG1 Fc and a few adjoining residues not written out]GGSRSGGTSSSSSGSGSGSSGSTSGSGSSGCQFDLSTRRLRCG,HER2-paGFP density,[4]; then 10 nM M4Fc for 3 minutes,196±41 molecules/μm^2
same,HER2-paGFP density,[4]; then 10 nM M4Fc for 10 minutes,41±8 molecules/μm^2
same,storage stability,[5],stable at 4 °C at most for one month
same,binding,[6],bind with high affinity
same,incubation time after which meditope became barely detectable,[3],more than 3.5 h
same,time at which internalization was observed,[3]; as early as,20 min
tetravalent meditope: avidin saturated with biotinylated meditope (FIG. 4) (conjugate) GCQFDLSTRRLRCGGSRSGGTSGTGSTSGSGSSGSTSGSGKSSEGSGQAS[human IgG1 Fc and a few adjoining residues not written out]GGSRSGGTSSSSSGSGSGSSGSTSGSGSSGCQFDLSTRRLRCG,off-rate reduction of the multivalent meditope,[7],at least 36 fold
